Consider 27 compounds from ChEMBL document CHEMBL5606458, “ASAP - ZIKV NS2B-NS3 protease fluorescence single point” (2024).

In the assay the target is Nonstructural protein 3 (Zika virus) (UniProt A0A024AXB9).
[1] abbreviates: PRVABC59, Concentration 15.0 uM, Number of replicates 1.0.
The mark [2] stands for this setting: PRVABC59, Concentration 50.0 uM, Number of replicates 1.0.
[3] abbreviates: PRVABC59, Concentration 10.0 uM, Number of replicates 1.0.

In all, about 2,700 compounds went through this assay and about 160 (5.9%) showed an effect of 50% or more. The list shows a part of the results.

UniProt A0A024AXB9, sequence (A0A024AXB9 as listed by the source): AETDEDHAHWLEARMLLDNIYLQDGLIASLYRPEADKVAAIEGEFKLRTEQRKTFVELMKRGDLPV

`CNC(=O)c1cc(Cl)ccc1NS(=O)(=O)c1ccc(OC)nc1`: the inhibition is, setting by setting: (PRVABC59, Concentration 49.5 uM, Number of replicates 2.0, Standard deviation 0.29264209077575354 %) -3.57%; (PRVABC59, Concentration 99.01 uM, Number of replicates 2.0, Standard deviation 0.42851139208250477 %) -3.96%; (PRVABC59, Concentration 198.0 uM, Number of replicates 2.0, Standard deviation 1.5405512695954107 %) -5.44%.
Turning to `Cc1cc(CO)c2cccc(C[C@H](NC(=O)C(=O)c3ccco3)C(=O)O)c2n1`, the inhibition is -3.34% (PRVABC59, Concentration 49.95 uM, Number of replicates 2.0, Standard deviation 2.4287821935024936 %) and 2.26% (PRVABC59, Concentration 99.9 uM, Number of replicates 2.0, Standard deviation 2.478963622185565 %).
As for `CNC(=O)c1nc(Cl)ccc1NS(=O)(=O)c1ccc(Oc2ccccc2Cl)cc1`, the inhibition (PRVABC59, Concentration 49.5 uM, Number of replicates 2.0, Standard deviation 0.024233932131581936 %) was -1.72%.
As for `COc1cccc(CNC(=O)c2cc(Cl)ccc2NS(=O)(=O)c2ccc(Oc3ccccc3Cl)cc2)c1OC`, the inhibition under setting [1] was found to be 26.8%.
On to `Cc1nn(Cc2cccc(F)c2F)cc1C1CCNCC1`, for which the inhibition is -8.52% (PRVABC59, Concentration 49.5 uM, Number of replicates 2.0, Standard deviation 2.5978663303026193 %); -8.17% (PRVABC59, Concentration 99.01 uM, Number of replicates 2.0, Standard deviation 1.428439641032068 %); -7.04% (PRVABC59, Concentration 198.0 uM, Number of replicates 2.0, Standard deviation 0.38658741610653635 %).
With `O=C(NCCCOCCOCCO)c1cc(Cl)ccc1NS(=O)(=O)c1ccc(Oc2ccccc2Cl)cc1`, under setting [1], the inhibition amounted to 5.28%.
For `NCc1cccc(NC(=O)[C@H]2c3ccccc3OCCN2C(=O)OCc2ccccc2)c1`, the inhibition is -1.56% (PRVABC59, Concentration 49.5 uM, Number of replicates 2.0, Standard deviation 1.6336698212723795 %); -1.46% (PRVABC59, Concentration 99.01 uM, Number of replicates 2.0, Standard deviation 2.6735137910132156 %); 0.557% (PRVABC59, Concentration 198.0 uM, Number of replicates 2.0, Standard deviation 0.8375799766974225 %).
In the case of `CC1(C)CC(O)CC(C)(C)N1C(=O)c1cc(Cl)ccc1NS(=O)(=O)c1ccc(Oc2ccccc2Cl)cc1`, the inhibition under setting [1] amounted to 17.1%.
With `Cc1nccn1-c1ccc(NC(=O)C2CCN(c3ccc(C=O)cc3)CC2)cc1`, under setting [2], the inhibition is 26.4%.
Same read-out and setting: under `CC(C)(C)c1ccc(O)c(NC(=O)C2CCN(c3ccc(C=O)cc3)CC2)c1` stands 29.1%.
In the case of `COc1ccc(Cl)c(NC(=O)c2cc(Cl)ccc2NS(=O)(=O)c2ccc(Oc3ccccc3Cl)cc2)c1`, the inhibition under setting [1] came to 25.8%.
In the case of `N#Cc1ccc(Cl)c(NC(=O)C2CCN(c3ccc(C=O)cc3)CC2)c1`, the inhibition under setting [2] came to 23.1%.
Regarding `N#CCCN(Cc1cccnc1)C(=O)C1CCN(c2ccc(C=O)cc2)CC1`, the inhibition under setting [3] turned out to be 19.5%.
Consider `O=Cc1ccc(N2CCC(C(=O)Nc3cccc(-c4ccccc4)c3)CC2)cc1`, for which the inhibition under setting [2] was -1.54%.
Turning to `O=C1COc2cccc(CN3CCC(c4c[nH]c5cccnc45)CC3)c2N1`, the inhibition by setting is: (PRVABC59, Concentration 49.5 uM, Number of replicates 2.0, Standard deviation 2.0822807293083656 %) 2.91%; (PRVABC59, Concentration 99.01 uM, Number of replicates 2.0, Standard deviation 2.4375393813923902 %) 5.58%; (PRVABC59, Concentration 198.0 uM, Number of replicates 2.0, Standard deviation 1.957810886118356 %) 3.25%.
`Cc1cccc(C)c1NC(=O)CN1CCN(C(=O)c2cc(Cl)ccc2NS(=O)(=O)c2ccc(Oc3ccccc3Cl)cc2)CC1`: the inhibition under setting [1] worked out at 16.7%.
For `CNC(=O)c1cc(Cl)ccc1NS(=O)(=O)c1ccc(CN(C)C)cc1`, the inhibition is -1.35% (PRVABC59, Concentration 49.5 uM, Number of replicates 2.0, Standard deviation 0.11107237157276076 %); -1.18% (PRVABC59, Concentration 99.01 uM, Number of replicates 2.0, Standard deviation 0.5937321801607277 %); 1.44% (PRVABC59, Concentration 198.0 uM, Number of replicates 2.0, Standard deviation 1.4419211113183994 %).
Regarding `Cc1cc(CO)c2cccc(NCC3CCNCC3)c2n1`, the inhibition (PRVABC59, Concentration 99.9 uM, Number of replicates 2.0, Standard deviation 2.951218090372617 %) was -5.37%.
On to `O=Cc1ccc(N2CCC(C(=O)N3Cc4ccc(Br)cc4C3)CC2)cc1`, for which the inhibition under setting [2] was determined as 22.1%.
With `O=Cc1ccc(N2CCC(C(=O)NCc3noc(-c4ccco4)n3)CC2)cc1`, under setting [3], the inhibition was 20.9%.
Take `Cc1cc(CO)c2cccc(CC(=O)Nc3cccc(C(N)=O)c3)c2n1`: the inhibition by setting is: (PRVABC59, Concentration 49.95 uM, Number of replicates 2.0, Standard deviation 0.035627236808440856 %) 58.9%; (PRVABC59, Concentration 99.9 uM, Number of replicates 2.0, Standard deviation 0.025447255606513557 %) 72.8%.
`O=C(c1cc(Cl)ccc1NS(=O)(=O)c1ccc(Oc2ccccc2Cl)cc1)N(C1CCCCC1)C1CCCCC1`: the inhibition under setting [1] stood at 15.4%.
With `O=Cc1ccc(N2CCC(C(=O)Nc3ccc(-c4ccccc4)cc3)CC2)cc1`, the inhibition under setting [2] is 19.3%.
For the compound `Cc1cc(CO)c2cccc(Cc3cccc(NC(=O)c4cccc(Cn5cncn5)c4)c3)c2n1`, the inhibition was -3.88% (PRVABC59, Concentration 49.95 uM, Number of replicates 2.0, Standard deviation 0.822975548413545 %) and -0.852% (PRVABC59, Concentration 99.9 uM, Number of replicates 2.0, Standard deviation 0.7828305698397972 %).
`O=Cc1ccc(N2CCC(C(=O)NCc3nc(-c4ccccn4)no3)CC2)cc1`: the inhibition under setting [3] was determined as 23.5%.
Take `O=C(NCc1ccc2[nH]cnc2c1)[C@@]1(c2ccc(F)cc2)CCCNC1`: the inhibition by setting is: (PRVABC59, Concentration 50.0 uM, Number of replicates 2.0, Standard deviation 0.09228322221290718 %) 2.42%; (PRVABC59, Concentration 100.0 uM, Number of replicates 2.0, Standard deviation 1.0048608632181875 %) 2.57%; (PRVABC59, Concentration 200.0 uM, Number of replicates 2.0, Standard deviation 1.443205873701557 %) 4.96%.
As to `O=Cc1ccc(N2CCC(C(=O)Nc3ccc(C(F)(F)F)cc3[N+](=O)[O-])CC2)cc1`, the inhibition under setting [2] was 22.3%.

What is called inhibition is the relative decrease from the control value, in per cent.
